# From PubChem BioAssay AID1346428 (National Center for Advancing Translational Sciences (NCATS), 2018)
# Values joined by “and” are separate entries in the source; they are usually repeats but may differ in a detail not shown here. Identical values can stand only once. Screen size: about 48,000 compounds; about 1,200 (2.5%) were called active. About 2% were inconclusive and are not listed.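 How the source made its calls: active means activation of at least 60% and not above a set upper limit (about 1 call in 100 departs from these limits); inconclusive means activation of 40% to 60%, or above that upper limit; inactive means activation under 40%.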 Some of the results follow.
# Target: Probable G-protein coupled receptor 32 (Homo sapiens) (UniProt O75388)
# Assay: qHTS for Agonists of Human Resolvin D1 Receptor DRV1; further: 0% is about no effect
# Conditions: CHO-K1 GPR32 beta-arrestin PathHunter luminescence, 90 min; at 76.9 µM; active compounds read high; zero percent set by DMSO-only wells
# How it was run: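 PathHunter enzyme-fragment complementation, CHO-K1 GPR32 stable line; 2,500 cells/well, overnight attach; cpd 90 min 37 °C 5% CO2; detection reagent 1 h RT; chemiluminescence. DMSO = EC0.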
# UniProt O75388, sequence (O75388 whole entry, looked up): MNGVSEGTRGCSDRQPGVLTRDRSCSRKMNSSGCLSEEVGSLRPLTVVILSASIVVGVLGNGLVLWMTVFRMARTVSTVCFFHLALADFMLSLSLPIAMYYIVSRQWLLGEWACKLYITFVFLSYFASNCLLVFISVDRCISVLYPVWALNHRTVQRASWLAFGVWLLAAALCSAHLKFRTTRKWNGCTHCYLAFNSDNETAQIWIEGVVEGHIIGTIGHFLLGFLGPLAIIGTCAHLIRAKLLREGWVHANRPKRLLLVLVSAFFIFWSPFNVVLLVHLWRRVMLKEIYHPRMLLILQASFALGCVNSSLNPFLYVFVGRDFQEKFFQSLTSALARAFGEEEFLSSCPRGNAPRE
row,Compound,activation
1,CC(C)OC(=O)C(C(=O)C(F)(F)F)c1cc(NS(=O)(=O)c2ccc3c4c(cccc24)C(=O)N3)ccc1O (centres undefined),inactive: 11.8%
2,Cc1cccc(-c2nc3ccccc3n2Cc2ccccc2)c1,inactive: -23.1%
3,CCNc1ncnc2c1nnn2C,inactive: -3.28%
4,CCOC(=O)c1c(C)[nH]c(CCC(=O)Nc2c(C)cccc2CC)c1C,inactive: -10.7%
5,Cc1ccc(S(=O)(=O)c2nnn3c2nc(NC(C)C)c2sccc23)cc1,inactive: -14.7%
6,COc1ccc2c(Sc3ccc(C)cc3)c(C(=O)NCc3ccc(F)cc3)[nH]c2c1,inactive: -4.06%
7,CN(C)C(=O)Oc1ccc[n+](C)c1,inactive: -0.56% and inactive: -0.966%
8,Nc1c2c(nc3ccccc13)CCCC2O (centres undefined),inactive: -8.95% and inactive: 4.67%
9,COc1ccccc1NC(=O)C1=C(C)Nc2nc(CCCO)nn2C1c1cccc(O)c1 (centres undefined),inactive: -4.63%
10,O=C(CCCn1c(=O)c2ccccc2n(Cc2cccc(Cl)c2)c1=O)NCCc1ccc(Cl)cc1,inactive: -20.3%
11,Cc1ccc(S(=O)(=O)N2CCCc3cc(NS(=O)(=O)c4cc(F)ccc4F)ccc32)cc1,inactive: -1.04%
12,O=C(CSc1nc2c(oc3ccccc32)c(=O)n1-c1ccccc1)Nc1ccccc1F,inactive: -26.9%
13,CC(C)c1ccc(NC(=O)CC2NCCNC2=O)cc1 (centres undefined),inactive: -8.39%
14,CCOC(=O)c1ccc(N2C(=O)c3n[nH]c(-c4ccco4)c3C2c2ccc(OCC)cc2)cc1 (centres undefined),inactive: -24.6%
15,CCCC(=O)Nc1cc(C(=O)NCc2ccccc2)ccc1S(=O)(=O)c1ccc(Cl)cc1,inactive: -6.5%
16,Cn1c(=O)c(=O)n(C)c2cc(S(=O)(=O)N3CCN(c4ccc(F)cc4)CC3)ccc21,inactive: -4.47%
17,COc1cc(C2CC(=O)c3cnc(N4CCN(CCO)CC4)nc3C2)cc(OC)c1OC (centres undefined),inactive: 2.36%
18,O=C(Cn1cc(S(=O)(=O)N2CCCC2)c(S(=O)(=O)N2CCCC2)c1)Nc1ccccc1,inactive: -5.71%
19,CCC(C(=O)OCc1cc(=O)n2nc(C)sc2n1)c1ccccc1 (centres undefined),inactive: -15.4%
20,Cc1cccc(-c2noc(CN(C3CCCCC3)S(=O)(=O)c3ccc(F)cc3)n2)c1,inactive: -30.4%
21,COc1ccc(OC)c(NC(=O)c2c(NCc3sccc3C)sc3c2CCCCC3)c1,inactive: -12.7%

row,Compound,activation
1,COc1ccc2c(c1)-c1nc(NC(=O)c3ccc(OC)c(Br)c3)sc1CC2,inactive: -0.193%
2,COc1ccc(NC(=O)CSc2nc3ccccc3nc2N2CCC(C)CC2)cc1,inactive: -43.7%
3,COc1ccc(CNC(=O)CN(c2ccc(C(C)C)cc2)S(=O)(=O)c2c(C)nn(C)c2C)cc1,inactive: -17%
4,Cc1cc(C)c(C)c(OCC(=O)Nc2ccc(S(=O)(=O)Nc3nc(C)cc(C)n3)cc2)c1,inactive: 47%
5,Cc1ccccc1NC(=O)Nc1nnc(N2CCCCCC2)s1,inactive: -0.891%
6,COc1ccccc1NC(=O)CCn1nc(-c2ccccc2OC)c2c(C)cc(C)nc21,inactive: 37%
7,CCC(=O)N1CCc2cc(Br)cc(S(=O)(=O)CCC(=O)N3CCN(c4ccc(F)cc4)CC3)c21,inactive: 1.23%
8,Cc1ccccc1OCC(=O)OCc1cc(=O)n2nc(C3CC3)sc2n1,inactive: 0.4%
9,CCOC(=O)C1CCCN(C(=O)C2CCN(S(=O)(=O)c3c(C)noc3/C=C/c3ccccc3F)CC2)C1 (centres undefined),inactive: -1.81%
10,CCc1ccc(NC(=O)CC2C(=O)N(c3cccc(C)c3)C(=O)N2CCC(C)C)cc1 (centres undefined),inactive: -19%
11,COc1ccccc1OCC(O)COC(N)=O (centres undefined),inactive: -10.3%
12,O=C(CSC1=Nc2ccccc2N=C(c2ccc(F)cc2)C1)Nc1cccc(C(F)(F)F)c1,inactive: -3.5%
13,COc1ccc(CC(=O)NCCc2sc3nc(-c4ccc(OC)cc4)nn3c2C)cc1,inactive: -14.2%
14,CCC(C)NC(=O)Cn1c(=O)n(CCCCCC(=O)NCc2ccccc2Cl)c(=O)c2sccc21 (centres undefined),inactive: -11.8%
15,CC(=O)c1ccc(NC(=O)c2cc(-c3ccc(C)s3)nc3ccccc23)cc1,inactive: -7.87%
16,O=C(NCc1cccc(Br)c1)c1cnn(-c2ccc(F)cc2)c1-n1cccc1,inactive: 2.03%
17,CC(C)(C)CC(=O)NCC(c1ccc2c(c1)OCO2)N1CCN(c2ccccc2)CC1 (centres undefined),inactive: -23.8%
18,O=C1C(c2ccc(F)cc2)N(CCc2ccc(Cl)cc2)C(=O)CN1C1CCCCCC1 (centres undefined),inactive: -19.1%
19,CCOC(=O)N1CCc2c(sc3c2c(=O)n(CCc2ccccc2)c(=O)n3CC(=O)Nc2ccc(C)cc2)C1,inactive: -9.29%
20,COc1cc(NC(=O)N2c3ccccc3Sc3ccccc32)cc(OC)c1,inactive: -11.6%
21,O=C(CSc1nccn1-c1ccc(Cl)cc1)Nc1ccc(Cl)c(Cl)c1,inactive: -4.98%

row,Compound,activation
1,CCOC(=O)c1ccc(NC(=O)CSc2ccc3ccccc3n2)cc1,inactive: -26.4%
2,COc1ccccc1C(=O)NCC(c1cccnc1)N1CCc2ccccc2C1 (centres undefined),inactive: -37.8%
3,CCCOC(=O)c1c(NC(=O)C(C)Sc2nc(-c3ccccc3)cc(C(F)(F)F)n2)sc(C(=O)N(C)C)c1C (centres undefined),inactive: -2.87%
4,CN1CCc2c(sc(NC(=O)CSc3ccccc3)c2-c2nc3ccccc3s2)C1,inactive: -33.1%
5,Cc1cccc(N2CCN(C(=O)CN3C(=O)CSc4c3c(C)nn4-c3ccccc3)CC2)c1C,inactive: -29.9%
6,COc1cc(NC(=O)CCc2c(C)nn(-c3ccc4nnc(C)n4n3)c2C)cc(OC)c1OC,inactive: -5.45%
7,CN(C)CCNC(=O)C1CCN(Cc2cc3ccccc3n2Cc2ccccc2)CC1,active: 63.9%
8,CCOc1ccc(S(=O)(=O)c2c(C(=O)c3ccc(CC)cc3)cnc3ccc(C)cc23)cc1,inactive: -5.41%
9,CCc1ccc(NC(=O)[C@H](Cc2ccccc2)N2Cc3ccccc3C2=O)cc1,inactive: 21.6%
10,CCOc1ccc(N2CC(NC(=O)c3cccs3)CC2=O)cc1 (centres undefined),inactive: -13.8%
11,CCCN(CCC)CCCNC(=O)c1cc2c(-c3ccc(OC)c(OC)c3)nn(C)c2s1,inactive: -1.27%
12,COc1ccc(C2C(=O)N(C3CCCCCC3)CC(=O)N2Cc2ccc(C)cc2)cc1 (centres undefined),inactive: -17.9%
13,O=C1CC(c2nc(-c3ccc(Cl)cc3)no2)CN1c1ccc2c(c1)OCCO2 (centres undefined),inactive: -5.41%
14,O=C(CSc1nc2c([nH]c3ccccc32)c(=O)n1-c1ccccc1)N1CCc2ccccc21,inactive: -4.19%
15,Cc1ccc(S(=O)(=O)n2nc(-c3ccccc3)nc2NCc2ccc(Cl)cc2)cc1,inactive: -1.52%
16,COc1cccc(CNC(=O)COc2cc(=O)n(C)c3ccccc23)c1,inactive: 0.765%
17,Cc1ccc(-n2nnnc2CNC(=O)c2cc(C(F)(F)F)cc(C(F)(F)F)c2)cc1C,inactive: -31.4%
18,CCCCOC(=O)CC(CC(=O)OCCCC)(OC(C)=O)C(=O)OCCCC,inactive: -5.99%
19,O=C(Cn1nc(C(F)(F)F)c2c1CCCC2)Nc1ccc(Br)cc1,inactive: -0.4%
20,Cc1ccc(N2CCN(S(=O)(=O)c3cccc4ccccc34)CC2)cc1Cl,inactive: -0.412%
21,COc1ccccc1S(=O)(=O)Cc1ccc(C(=O)NCc2ccc(Cl)cc2)o1,active: 97.6%

row,Compound,activation
1,COc1ccc(-n2ncc3c(NC4CCCC4)ncnc32)cc1,inactive: 31.2%
2,COc1ccc(S(=O)(=O)Nc2ccc(-c3cn4c(C)csc4n3)cc2)cc1,inactive: -7.34%
3,O=C(Nc1cccc(C(F)(F)F)c1)c1cc(CN2CCOCC2)on1,inactive: 3.56%
4,CCCNc1ccc(-c2nc(-c3ccccn3)no2)cc1[N+](=O)[O-],inactive: 4.3%
5,O=C(Nc1ccccc1F)c1ccc2c(Cl)c3c(nc2c1)CCC3,inactive: 22%
6,CC(=O)c1c(C)oc2c1cc(NS(=O)(=O)c1ccc(Br)cc1)c1ccccc12,active: 80%
7,CCCCNC(=O)c1ccc2c(c1)ncn2-c1cc(OC)ccc1OC,inactive: -14.5%
8,Cc1c(Cl)cccc1-n1ncc(C(=O)Nc2ccc(Br)cc2F)c1C1CCNCC1,inactive: 10.3%
9,CCN(CCCNC(=O)c1nn(-c2ccc(OC)cc2)c(=O)c2c1c1ccccc1n2C)c1ccccc1,inactive: -8.52%
10,COC(=O)c1ccc(NC(=O)CCn2cnnn2)cc1,inactive: 8.23%
11,CCOc1ccccc1CNCc1cccn1-c1nnc(N2CCN(c3ccccc3)CC2)s1,inactive: 48.3%
12,COc1ccccc1NC(=O)C1=C(C)Nc2nnnn2C1c1ccc(C(F)(F)F)cc1 (centres undefined),inactive: 3.45%
13,CCc1cccc(NC(=O)CCNS(=O)(=O)c2cccc3nonc23)c1,inactive: -11.9%
14,COC(=O)c1ccc(NC(=O)c2nc(-c3ccc(Cl)cc3)n3c2CCCCC3)cc1,inactive: -16.7%
15,Cc1ccc2nc3sc(C(=O)NCCCN(C)c4ccccc4)cc3cc2c1,inactive: -2.21%
16,Fc1cccc(-n2ncc3c2ncn2nc(Cc4ccccc4)nc32)c1,inactive: -3.47%
17,COc1ccc(NC(=O)CN(c2cc(C)cc(C)c2)S(=O)(=O)c2c(C)noc2C)cc1Cl,inactive: -1.98%
18,COc1ccccc1CNC(=O)CCC1N=C2c3ccccc3N=C(SCc3ccc(C)cc3C)N2C1=O (centres undefined),inactive: -2.83%
19,CC(N=C(NC#N)Nc1ccncc1)C(C)(C)C (centres undefined),inactive: 7.91% and inactive: -7.85%
20,Cc1ccccc1Nc1c(-c2ccc(N3CCOCC3)cc2)nc2ccccn12,inactive: -26.5%
21,COc1ccc(NC(=O)CSc2ccc3nc(-c4ccccc4)cn3n2)cc1OC,inactive: -13.7%
